Test results published in PubChem BioAssay AID1476 (National Center for Advancing Translational Sciences (NCATS), 2009).
“And” between values parts separate entries of the source, which are not always exact repeats. Identical values can stand only once. Out of some 200,000 compounds screened, about 4,500 (2.2%) were called active. This list was built around the results that the source calls inconclusive (neither active nor inactive); the mix of calls is not that of the screen. Calls follow the shape of the dose curve; as a rule, active = well fitted inhibition curve with a large enough effect; inconclusive = small, poorly fitted or top-dose-only effect, or effect the other way; inactive = flat fitted curve, though single readings scatter. Potencies of inconclusive entries are doubtful fits and often do not repeat.

Molecular target: Cruzipain (Trypanosoma cruzi) (UniProt P25779)
Test: qHTS Assay for Promiscuous and Specific Inhibitors of Cruzain (without detergent); also: nearly all actives have a fitted effect of over 40% in size;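 as to max response, negative = inhibition: plate controls were enzyme without inhibitor for no effect and buffer without enzyme for full effect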
Settings: purified cruzain, Z-FR-AMC fluorescence, no detergent
How it was run: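 Detergent-free condition (0.00005% Triton X-100) in acetate buffer pH 5.5 with DTT. 1.5 nM enzyme and compound were pre-mixed 15 min, then 2 uM Z-FR-AMC substrate added; reaction progress from fluorescence change between first and third reads (60 s).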
Potency is read from the fitted curve at half-maximal effect; tags tell the direction and shape of the fitted curve.

Chain of UniProt P25779 (P25779 whole entry, looked up): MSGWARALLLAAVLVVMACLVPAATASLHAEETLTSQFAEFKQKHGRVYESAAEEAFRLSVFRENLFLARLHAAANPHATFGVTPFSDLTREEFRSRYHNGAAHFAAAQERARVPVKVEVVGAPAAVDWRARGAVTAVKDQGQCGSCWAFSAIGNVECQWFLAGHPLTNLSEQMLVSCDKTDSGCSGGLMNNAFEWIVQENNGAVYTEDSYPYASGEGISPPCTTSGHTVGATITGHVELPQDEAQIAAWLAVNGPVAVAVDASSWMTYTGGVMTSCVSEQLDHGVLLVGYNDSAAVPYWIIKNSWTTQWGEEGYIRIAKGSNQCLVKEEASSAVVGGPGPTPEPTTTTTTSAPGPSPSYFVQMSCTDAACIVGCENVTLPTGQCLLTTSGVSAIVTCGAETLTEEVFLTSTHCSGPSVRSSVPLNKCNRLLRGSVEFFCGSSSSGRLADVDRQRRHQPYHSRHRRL

Row | Compound | Potency | max response, negative = inhibition
1 | COC(=O)CNC(=O)COC(=O)C(Cc1ccccc1)NC(=O)c1ccco1 (centres undefined) | inconclusive: 25.1 µM [inhibitor, single point] | 
2 | CN1CCN(c2ncc3nc(-c4ccccc4)c(=O)n(-c4ccccc4)c3n2)CC1 | inconclusive: 3.16 µM [activator, partial curve] | 
3 | Cc1ccc(/C=C2\CCCC3=C2NC(=S)NC3c2ccc(C)cc2)cc1 (centres undefined) | inconclusive: 31.6 µM [inhibitor, single point] | 
4 | OC1(c2cccc(C(F)(F)F)c2)CCN(Cc2nnnn2CCc2ccccc2)CC1 | inconclusive: 25.1 µM [activator, partial curve] | 
5 | COc1cc(-c2nnc(-c3cc(OC)c(OC)c(OC)c3)o2)cc(OC)c1OC | inconclusive: 15.8 µM [activator, single point] | 
6 | CCCCCSc1nnc(-c2ccc(Br)cc2)o1 |  | inactive: 6.34%
7 | Cc1ccccc1-n1nc(C(=O)c2cccs2)cc(-c2nc3ccccc3[nH]2)c1=N | active: 25.1 µM | 
8 | C/C(=N\NC(=O)c1ccc(OC2CCCC2)cc1)c1ccc(C)s1 | inconclusive: 31.6 µM [inhibitor, single point] | 
9 | O=C(N/N=C/c1ccc2c(c1)OCO2)c1cc(-c2ccccc2Cl)nc2ccccc12 | inconclusive: 39.8 µM [inhibitor, single point] | 
10 | Cc1cc(-c2csc(NC(=O)c3cccc(S(=O)(=O)N(C)C)c3)n2)c(C)n1-c1ccccc1 | active: 7.94 µM | 
11 | CCOc1ccc(-n2ccnc2SCC(=O)Nc2nc3ccc(C)cc3s2)cc1 | inconclusive: 31.6 µM [inhibitor, single point] | 
12 | CCC1Oc2ccc(C)cc2N(CC(=O)N(Cc2cccnc2)Cc2cccc(F)c2)C1=O (centres undefined) | inconclusive: 39.8 µM [activator, single point] | 
13 | Cc1cccc(C2=NN(c3ccc(Br)cc3)[C@@H](C(=O)N3CCOC3=O)[C@@H]2c2ccc([N+](=O)[O-])cc2)c1 | active: 6.31 µM | 
14 | CCOc1ccc(NC(=O)Cn2c(=O)n(-c3ccccc3)c(=O)c3ccc(C(=O)NCc4ccc5c(c4)OCO5)cc32)cc1 | inconclusive: 39.8 µM [inhibitor, single point] | 
15 | N=c1c(C(=O)NCc2ccc(F)cc2)cc2c(=O)n3ccccc3nc2n1CC1CCCO1 (centres undefined) | inconclusive: 39.8 µM [inhibitor, single point] | 
16 | COc1ccccc1C1CC(c2ccco2)=NN1c1ccccc1 (centres undefined) | inconclusive: 39.8 µM [inhibitor, single point] | 
17 | COc1cc(OC)c(NC(=O)CC(c2cccs2)N2Cc3ccccc3C2=O)cc1Cl (centres undefined) |  | inactive: -28.4%
18 | Cc1ccc2c(c1)c1c(c(=O)n(-c3ccccc3C)c(=O)n1CC(=O)N1CCCC1)n2C |  | inactive: 5.69%
19 | Cc1ccccc1Nc1sc(C(=O)c2ccccc2)c(N)c1C(=O)NCc1ccc(Cl)cc1 | active: 5.01 µM | 
20 | O=C(Nc1nc(-c2ccccc2)cs1)c1cccc([N+](=O)[O-])c1 | inconclusive: 31.6 µM [inhibitor, single point] | 
21 | O=C(Cc1ncc(C(F)(F)F)cc1Cl)N1CCN(c2cccc(Cl)c2)CC1 |  | inactive: -14.3%
22 | COC(=O)c1ccccc1NS(=O)(=O)c1ccc2c3c(cccc13)C(=O)N2 | inconclusive: 31.6 µM [activator, single point] | 

Row | Compound | Potency | max response, negative = inhibition
23 | CCc1ccccc1NC(=O)CSCc1cnn(-c2ccccc2)c1-n1cccc1 | inconclusive: 25.1 µM [inhibitor, single point] | 
24 | Cc1ccc(N2C(=O)CC(Sc3nc4ccccc4o3)C2=O)cc1Cl (centres undefined) | inconclusive: 39.8 µM [inhibitor, single point] | 
25 | Cc1ccccc1N1CCN(CCCOc2ccc3c(C)cc(=O)oc3c2)CC1 |  | inactive: -15.8%
26 | CC(=O)[C@@]1(N=Nc2ccc(S(N)(=O)=O)cc2)CCOC1=O |  | inactive: 0.871%
27 | Cn1c(=O)c2c(nc(N3CCN(c4ccccc4)CC3)n2CCCc2ccccc2)n(C)c1=O | inconclusive: 31.6 µM [activator, single point] | 
28 | COc1cccc(-c2cc(NCc3cccs3)ncn2)c1 |  | inactive: 27.3%
29 | CCc1nn(C(C)C(=O)N2CCN(c3cccc(C(F)(F)F)c3)CC2)c(=O)c2cc3occc3n12 (centres undefined) | inconclusive: 25.1 µM [activator, single point] | 
30 | CCC1=C(OC(=O)N(CC)CC)N2C(=O)OC(=NCCc3c[nH]c4ccccc34)[C@]2(C)[C@H]2C1=CC[C@H]1C(=O)N(C)C(=O)[C@H]12 | inconclusive: 20 µM [activator, partial curve] | 
31 | O=C(Cn1c(=O)oc2cc(S(=O)(=O)N3CCCC3)ccc21)Nc1cccc(C(F)(F)F)c1 | inconclusive: 39.8 µM [inhibitor, single point] | 
32 | CN(C)S(=O)(=O)n1cc(/C=C(\NC(=O)c2ccccc2Cl)C(=O)NCCCn2ccnc2)c2ccccc21 | inconclusive: 31.6 µM [activator, single point] | 
33 | CCOC(=O)C1CCN(S(=O)(=O)c2cc3c4c(c2)CC(=O)N4CCC3)CC1 | inconclusive: 39.8 µM [activator, single point] | 
34 | O=C(Nc1nnc(-c2ccco2)o1)c1ccc2ccccc2c1 | inconclusive: 39.8 µM [inhibitor, single point] | 
35 | CC(C)C[C@H](NC(=O)C1(c2ccccc2)CCN(C(=O)[C@H]2CSCN2C(=O)OC(C)(C)C)CC1)C(=O)O | inconclusive: 25.1 µM [activator, partial curve] | 
36 | CC(C)c1ccc(N2C(=O)CC(Sc3ncn[nH]3)C2=O)cc1 (centres undefined) | active: 3.98 µM | 
37 | Cc1nc(N2CCOCC2)c2c(C(=O)NCCc3ccccc3)c(C)oc2n1 |  | inactive: -7.96%
38 | Cc1cc2c(cc1C)N(C(=O)CSC1=NCCS1)C(C)(C)c1ssc(=S)c1-2 | inconclusive: 39.8 µM [inhibitor, single point] | 
39 | CCCn1nc(C(=O)Nc2ccc3nc(C)sc3c2)c2ccccc2c1=O | inconclusive: 31.6 µM [activator, single point] | 
40 | COc1ccccc1NC(=O)CSc1nc(O)cc(=O)n1-c1ccccc1OC |  | inactive: -0.138%
41 | N#CC(=C(\N)Sc1ccccc1N)/C(C#N)=C(/N)Sc1ccccc1N |  | inactive: -23.8%
42 | COc1cccc(-n2c(SCC(=O)c3c[nH]c4ccccc34)nc3ccccc3c2=O)c1 | inconclusive: 39.8 µM [inhibitor, single point] | 
43 | Cc1ccc(-c2nnc(SCC(=O)NC3CCCC3)nc2-c2ccc(C)cc2)cc1 | active: 12.6 µM | 
44 | Cc1ccc2oc(-c3cccc(NC(=S)NC(=O)/C=C/c4ccco4)c3)nc2c1 | active: 3.98 µM | 

Row | Compound | Potency | max response, negative = inhibition
45 | CCCC1=[N+](CC(=O)c2ccc(C)cc2)CCn2cccc21 |  | inactive: -1.78%
46 | Cc1cc2cc(CN(Cc3ccc4c(c3)OCO4)C(=O)c3cnccn3)c3nnnn3c2cc1C | inconclusive: 31.6 µM [activator, single point] | 
47 | CCNC(=O)CC1C(=O)N(c2ccc(F)cc2)C(=O)N1Cc1ccc(OC)cc1 (centres undefined) |  | inactive: -9.86%
48 | O=c1[nH]c(Cc2ccccc2)nc2c1oc1ccccc12 | inconclusive: 39.8 µM [inhibitor, single point] | 
49 | O=C(CCC(=O)N1CC2CCCN2c2ccccc21)NCc1cccc(Cl)c1 (centres undefined) |  | inactive: 15.8%
50 | COc1ccc(C(=O)N2CC3(C)CC2CC(C)(C)C3)cc1OC (centres undefined) | inconclusive: 39.8 µM [activator, single point] | 
51 | COc1ccc(C)cc1NC(=O)C1CCN(S(=O)(=O)c2c(C)noc2/C=C/c2ccco2)CC1 |  | inactive: -6.93%
52 | CCCn1ccc2c(OCC(=O)Nc3cc(C)ccc3C)cccc2c1=O |  | inactive: 8.72%
53 | N#C/C(=C\c1cn(-c2ccccc2)nc1-c1ccccc1)S(=O)(=O)c1ccccc1 | inconclusive: 31.6 µM [inhibitor, single point] | 
54 | CCc1ccc(CNC(=O)c2cc3cc(S(=O)(=O)N4CCCCC4)ccc3n2C)cc1 |  | inactive: -21.5%
55 | CC(C)CCNC(=O)NC(=O)COC(=O)c1cc(S(=O)(=O)N2CCOCC2)ccc1N1CCCCC1 | inconclusive: 39.8 µM [activator, single point] | 
56 | Cc1ccc(NC(=O)CSc2nc3ccccc3c3nc4ccccc4n23)cc1 | inconclusive: 25.1 µM [inhibitor, single point] | 
57 | COc1ccc(OCC(=O)Nc2cc(-c3ccccc3F)nn2-c2ccccc2)cc1 |  | inactive: 5.3%
58 | CC(=O)c1sc(N/N=C\c2ccc(C)cc2)nc1C | inconclusive: 39.8 µM [activator, single point] | 
59 | CCCCNS(=O)(=O)c1ccc2nc(-c3cccs3)cc(C(=O)NCC(OC)OC)c2c1 | inconclusive: 31.6 µM [activator, single point] | 
60 | COC(=O)C1(C(=O)OC)Cc2conc2[C@H]1c1ccccc1 |  | inactive: 0.661% and inactive: -5.96% and inactive: -5.94%
61 | CCc1ccc2c(c1)c(=O)c(S(=O)(=O)c1ccc(Cl)cc1)cn2CC |  | inactive: -13.8%
62 | O=C(CC1(O)C(=O)N(CCc2ccccc2)c2ccc(Br)cc21)c1ccc(F)cc1 (centres undefined) | inconclusive: 25.1 µM [activator, single point] | 
63 | CC1Cc2nc(SCC(=O)Nc3ccc4c(c3)OCO4)n(CCc3ccccc3)c(=O)c2S1 (centres undefined) | inconclusive: 39.8 µM [inhibitor, single point] | 
64 | O=C(CSc1ccc(F)cc1)N1CCC(c2nc3ccccc3s2)CC1 | inconclusive: 31.6 µM [activator, single point] | 
